Data from the supplement of paper PMC11417369.
± gives the standard deviation of the averaged measurements. This is one part of the list.

Each sequence was assayed on PfAP2-I AP2 domain 3 (GST-tagged) (assay: gcPBM binding intensity (ln(normalized median fluorescence intensity)); higher = stronger DNA binding).
Method in brief: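 Probes on an Agilent 4 × 180k array were primer-extended, double-stranded and 36 bp long, taken from intergenic genomic regions, with negative controls added. GST-tagged P. falciparum DNA-binding domains from E. coli, about 25 μg on average, were applied to the array for 1 h in 1× PBS containing 1% milk, 0.2 mg/ml BSA, 0.5% salmon testes DNA and 0.03% Triton X-100. Binding intensity, obtained after Alexa488 anti-GST antibody detection and a 488 nm scan, is the highest Masliner-normalised natural-log median intensity across replicate spots of either probe orientation.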

In order of rising “gcPBM binding intensity (ln)” value:
1. AATAAAAAAATTAAAATTAAAAAATTAAAACTTAAA [CACACA_negctrl_site987]  6.96 ± 0.49
2. ATAAATGAGCCATATTAAATCCGTTACACGGGTGTG [CACACA_negctrl_site1368]  7.26 ± 0.68
3. TACATCTTACTACTTATAATATAATATAGTATGAAT [TGCATGCA_negctrl_site8]  7.29 ± 0.45
4. TACAAAATATGGTAATAAAGTAGTTACATGAATTGG [XGTACX_negctrl_site522]  7.47 ± 0.77
5. TAAAATCAATGTTCTTGTACTTAAAATGTTTGTTCT [XGTACX_site5490]  7.53 ± 0.57
6. AAATTTATAAATTAAAGTACATATTTCTTGAATATT [XGTACX_site859]  7.53 ± 0.42
7. TATTATTCTACTATTATATTCTATATTATTTATAGT [CACACA_negctrl_site499]  7.55 ± 0.53
8. AAATTATTTTGTTATCATTATATATAGATTGAATAT [XGTACX_negctrl_site165]  7.55 ± 0.47
9. ACATATAAGTTATATACACACAATAATATGTAAATA [CACACA_site6766]  7.58 ± 0.33
10. AAAAAAAATATGAAAACACACATATATAAATAAATA [CACACA_site113]  7.58 ± 0.45
11. ATATGTGAATAAAAATGTACGTGTTCTTTTTTTTTT [XGTACX_site320]  7.59 ± 0.4
12. AAAATTAAATTATTTACACACAATATTAAAATATTT [CACACA_site3244]  7.61 ± 0.57
13. CTATACAATAAAAATTGTACATACATATATGTTATA [XGTACX_site5309]  7.61 ± 0.54
14. AAAGAAAAAAAAAAAACACACAAAAAAAATCAAAAT [CACACA_site2871]  7.62 ± 0.7
15. TATATATTTACATATTGTACAATATAAAAATAATTA [XGTACX_site19]  7.62 ± 0.18
16. TAATTTAAATGATGTAGTACATATAAATATATCTAA [XGTACX_site262]  7.64 ± 0.3
17. TACGAAAGGTAATATTGTACATTACAAAATTTTATA [XGTACX_site5512]  7.64 ± 0.5
18. TATAGATACACTTTGTGTACATAAAAATTGTATTAA [XGTACX_site7137]  7.66 ± 0.29
19. TGTGGCCCTGCGAGGTGGTCATCATGAATACGAAAA [XGTACX_site1526]  7.67 ± 0.55
20. CAAACAAATATATGTTGTACTTATTATATATACATA [XGTACX_site2998]  7.67 ± 0.3
21. CATTATGATTAAATATGTACATATTATTATATAAAT [XGTACX_site2477]  7.7 ± 0.38
22. AAAAAGTAAAAGAAAGCACACACACCGGTATATATG [CACACA_site9281]  7.71 ± 0.69
23. AAATTCAAACAAATTACACACATTTTTTTTTAATTT [CACACA_site3596]  7.72 ± 0.7
24. TATTATATAATTTTAACACACAAGAATATAAACTTT [CACACA_site1363]  7.73 ± 0.62
25. ATCCAAAAGAAAAATAGTACAGATATGAACAATATG [XGTACX_site6944]  7.73 ± 0.68
26. TCAAAGGAATTTTTATGTACATATAAACTTTATTCT [XGTACX_site3432]  7.73 ± 0.33
27. TTCTTTTAAATTAGCTGTACGGTTTTCTACATGCAT [XGTACX_site356]  7.74 ± 0.6
28. ATATTTTTTATAAAATGTACTTATTATTAGAATATA [XGTACX_site2460]  7.75 ± 0.31
29. ACTTTAAAAAGATTCACACAAAATATATAAAAATAT [CACACA_site5334]  7.75 ± 0.39
30. TATAATATAAAAAAAAGTACACGAATTTTTTTTCAG [XGTACX_site6105]  7.76 ± 0.2
31. ATATTTATGTAATGTTTGATTTTTTTTTTATGTGTG [CACACA_negctrl_site1422]  7.76 ± 0.26
32. AATTTTTCTTTTTTTTGTACAGAATATATATTTTAT [XGTACX_site1419]  7.77 ± 0.62
33. AAAAAAAATTTTATCTGTACACATTTTTTTCTTTTT [XGTACX_site4229]  7.78 ± 0.63
34. AGTATAAAATTTGGTTGTACATTTTTAAAAAAATTA [XGTACX_site7519]  7.79 ± 0.3
35. TCGTAATAATATAAATGTACTTTATTAATTAAAAGA [XGTACX_site3416]  7.79 ± 0.46
36. AACATATACTGTTTATGTACACATTGTTATATTAAT [XGTACX_site4276]  7.82 ± 0.42
37. TACTGTTTAAAATATACACACATAATCAAAAAAAAA [CACACA_site2510]  7.82 ± 0.58
38. TTATCATATGTATGCATACACACAAAAAATTATATA [CACACA_site397]  7.82 ± 0.32
39. TACTATTTTTATAATACACACATATATTTGTGATAT [CACACA_site1775]  7.84 ± 0.44
40. TGAAGGAATACAGCTCGTACATGTGTAAAGAGATAA [XGTACX_site500]  7.86 ± 0.6
41. ATTGATCTTTATTGTTGTACATTAAACGTTAATTTT [XGTACX_site1788]  7.86 ± 0.52
42. ATGGAAATTTTATCATGTACATATACCGTTGAATAA [XGTACX_site5420]  7.92 ± 0.53
43. AAAAAAAAAATTGAAAGTACACAAATGGGGTATTAT [XGTACX_site3960]  7.95 ± 0.69
44. ATATATCTATATAGAAATGTATATATATATATGTGT [TGCATGCA_negctrl_site349]  7.96 ± 0.37
45. AAAAAAAAAAAAAAATGTACATATATATTTATATAT [XGTACX_site229]  7.97 ± 0.17
46. ACATATACATACATATGTACATATACATAAATATAT [XGTACX_site1285]  7.97 ± 0.46
47. TAGTAAGAATTACTGTGTACTAAAATATTAAAAAGT [XGTACX_site2578]  8.03 ± 0.57
48. ACAATATATTTTTGAGCATGCGCAAAAGAGAATGCA [TGCATGCA_site566]  8.04 ± 0.38
49. AATAAGCAGAAACACACACACAAAAAAAAAAAAAAA [CACACA_site719]  8.05 ± 0.7
50. ATATAATTTAATTTCTGTACATAAGAGAAAAAACAA [XGTACX_site4865]  8.06 ± 0.39
51. TATGTATAAATATTAACACACAAAAAAAAAAAAAAA [CACACA_site6938]  8.06 ± 0.54
52. GTTTGATAACACCTACAAACTCTTTTTTTTTTTTTT [CACACA_negctrl_site1134]  8.06 ± 0.7
53. TACATTTTATGCATTTGTACACAAATAAATAAATAA [XGTACX_site2652]  8.07 ± 0.45
54. TTTTTTTTTTTTTATACACACATTAAAATAAAAAAG [CACACA_site3946]  8.07 ± 0.23
55. CTCTTCCTTAATTTTTGTACTTAAAATTTTTTTTTT [XGTACX_site1628]  8.08 ± 0.28
56. AATAAAAACAAACAAAAAAACAAATAAATAAATAAA [CACACA_negctrl_site483]  8.11 ± 0.51
57. AACCCCAAGCCGTACTGTACATATATTTTTATTTTA [XGTACX_site142]  8.12 ± 0.63
58. TTATGCAAAAATAAATCAATATGTTGATATGTAAAT [GTGCAC_negctrl_site128]  8.17 ± 0.65
59. ATATCAATTTTTGGTGGTACGTAGGAAGTTTCAGAA [XGTACX_site6881]  8.19 ± 0.26
60. TATTAAATTATATAGACACACATTATGTATATATAT [CACACA_site345]  8.22 ± 0.7
61. TCGTTATCCATCTTCACACATATATATAGTAATATA [CACACA_site5492]  8.27 ± 0.49
62. TACCTATAAAAGTACACACACACACGGATATAAATA [CACACA_site6569]  8.32 ± 0.18
63. ACTATAAATATATACACATGCGCACACACAAGTGGG [TGCATGCA_site432]  8.34 ± 0.56
64. AACAAAAAAACAAACACACACACACCCATATATATA [CACACA_site3652]  8.35 ± 0.53
65. TAATATATATGTATGGCACACACGGATAAATATATA [CACACA_site930]  8.42 ± 0.58
66. AAATGAAGATTTAAATGTACGAGAGGGTATACAAAT [XGTACX_site5075]  8.44 ± 0.84
67. GACTTCTCCATATACACACACCAACAAATATAAAAA [CACACA_site7331]  8.5 ± 0.42
68. GTAGTCCAAAAAAAGCGTACACAGAAAAAAAAAAAA [XGTACX_site4273]  8.56 ± 0.73
69. TAATTTATTGTACGTGCATGCTATTTTTTATTTTTA [TGCATGCA_site1059]  8.64 ± 0.68
70. TCATACATTTTCCTTGCACACATTTATAATTAATGT [CACACA_site614]  8.78 ± 0.35
71. AAATAGTCTTCTCTTGCATGTAACAAATATATATAT [TGCATGCA_site428]  8.89 ± 0.16
72. AACATTCTATGTTGCACACAAAGAGAAAAATTTATT [CACACA_site3995]  9.01 ± 0.028
73. ACCATTTGTACTTACGCACACATAAAATATATATAT [CACACA_site1545]  9.19 ± 0.085
74. ATGTAATTCTTTTACTTTTTTTTTTTTTTTTTTTTT [CACACA_negctrl_site979]  9.195 ± 0.021
75. TAACAAAATGTAAATAAACACACATATATATATATA [CACACA_site8352]  9.34 ± 0.27
76. AAAAAGAAAAAACTTACACACATATATACCCCCATG [CACACA_site4463]  9.335 ± 0.064
77. TGAATTAACAAATAGACACACATATATATATATATA [CACACA_site3195]  9.34 ± 0.42
78. TTGTAATATATAAAAGTGCATATATGGTTCCATATA [GTGCAC_site9544]  9.38 ± 0.14
79. AAAAGTTGTATTTGCACACATAAAAAAAAGATATTA [CACACA_site3840]  9.54 ± 0.2
80. CATAATATTAAATCAGTGCAAATATACAGAATAAAT [GTGCAC_site9786]  10.1 ± 0.17
81. TATATATATCTTTTGGTGCATATTTCGAATATATGT  10.3 ± 0.4
82. ATATAATTTATGTGCACACACTCCTATTTTTAGCTT [CACACA_site50]  10.45 ± 0.042
83. ATATAAACAAAGCAGTGCACGTAAACAAAACATATA [CACACA_negctrl_site1076]  10.5 ± 0.42
84. TCAAAAATTTATATAGTGCAATATATATATAATGTA  10.6 ± 0.72
85. ACATTGCACCCGTGCACACATAGAAAAATAATTCTT [CACACA_site409]  11.1
86. AAATAAATTTGACCAGTGCAATAACTTTGTATACCT [GTGCAC_site9446]  11.2 ± 0.64
87. ATAACAAAAATCCTTGTGCACTATTTTAATAGAGTC  11.4 ± 0.12
88. AACGGGTAATGCACAAAAAAAAAAAAATAAAATAAA [TGCATGCA_negctrl_site474]  11.4 ± 1
89. TTAAAAAATATATGCGTGCACTAATATTTCATATGC  11.5 ± 0.2
